In PMC4336329 (PLoS ONE, 2015):
Among all 310,000 compounds or so, about 2,200 (0.71%) showed an effect of 50% or more. The effect is printed as a negative number. The list shows a part of the results.

Molecular target: human ether-à-go-go-related gene (hERG) potassium channel (human, UniProt Q12809)
Assay: primary screen, population patch clamp on CHO cells stably expressing hERG

human ether-à-go-go-related gene (hERG) potassium channel, sequence (Q12809 whole entry, looked up): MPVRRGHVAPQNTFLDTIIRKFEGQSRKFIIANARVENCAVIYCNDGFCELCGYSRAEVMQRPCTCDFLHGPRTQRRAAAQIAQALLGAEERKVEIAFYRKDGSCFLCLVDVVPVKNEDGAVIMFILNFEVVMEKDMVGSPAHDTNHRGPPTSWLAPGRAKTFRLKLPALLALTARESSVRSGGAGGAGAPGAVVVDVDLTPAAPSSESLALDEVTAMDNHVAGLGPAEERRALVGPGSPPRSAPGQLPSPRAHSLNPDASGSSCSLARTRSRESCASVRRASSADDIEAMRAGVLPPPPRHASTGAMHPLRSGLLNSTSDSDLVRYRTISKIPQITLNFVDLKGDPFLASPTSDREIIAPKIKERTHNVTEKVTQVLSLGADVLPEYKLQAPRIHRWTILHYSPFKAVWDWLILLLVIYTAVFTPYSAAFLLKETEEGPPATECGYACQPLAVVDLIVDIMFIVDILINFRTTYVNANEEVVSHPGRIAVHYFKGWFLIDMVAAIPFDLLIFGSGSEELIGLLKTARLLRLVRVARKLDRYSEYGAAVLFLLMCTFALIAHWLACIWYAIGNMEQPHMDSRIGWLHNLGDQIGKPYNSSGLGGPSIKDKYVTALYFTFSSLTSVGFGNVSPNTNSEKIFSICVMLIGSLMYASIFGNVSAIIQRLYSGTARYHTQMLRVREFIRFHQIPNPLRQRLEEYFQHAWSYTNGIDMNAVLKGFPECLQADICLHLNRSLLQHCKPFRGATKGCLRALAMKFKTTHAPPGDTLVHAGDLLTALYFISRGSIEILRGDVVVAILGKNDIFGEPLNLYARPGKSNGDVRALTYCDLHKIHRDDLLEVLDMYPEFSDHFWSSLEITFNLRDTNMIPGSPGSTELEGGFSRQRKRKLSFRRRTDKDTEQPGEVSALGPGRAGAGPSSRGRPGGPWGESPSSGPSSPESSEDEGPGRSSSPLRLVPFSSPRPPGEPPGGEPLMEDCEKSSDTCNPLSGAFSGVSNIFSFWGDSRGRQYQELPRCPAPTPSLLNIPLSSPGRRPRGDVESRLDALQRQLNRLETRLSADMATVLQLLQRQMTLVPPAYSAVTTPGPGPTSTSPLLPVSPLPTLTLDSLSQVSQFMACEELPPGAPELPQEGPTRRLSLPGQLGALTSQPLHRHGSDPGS

| Compound | hERG current change (%, negative = inhibition) at 1uM [%] |
| --- | --- |
| CCOC(=O)C1CCN(C(=O)Cc2cccc3ccccc23)CC1 | 5.1 |
| O=S(=O)(c1ccccc1)[C@@]1(c2ccc(Br)cc2)C[C@@H]2ON=C(c3ccccc3)[C@@H]2C1 | -3.85 |
| CCS(=O)(=O)N1CCC(C(=O)NCc2ccc3c(c2)OCO3)CC1 | 6.78 |
| CCN(CC)CCn1c2ccc(F)cc2c2nc(C)sc21.Cl | -15.1 |
| COc1ccc(CC(=O)OCC(=O)c2c(N)n(C)c(=O)n(C)c2=O)cc1OC | 8.06 |
| Cc1noc(C)c1S(=O)(=O)N1CCCCC1 | 11.5 |
| CCCOc1ccc(S(=O)(=O)n2cc(F)c(=O)[nH]c2=O)cc1 | 18.2 |
| O=C(NC1(O)C(=O)c2ccccc2C1=O)c1ccc(C(F)(F)F)cc1 | 10.3 |
| CCCn1c(C)cc(C(=O)COC(=O)c2ccc[nH]c2=O)c1C | 11.6 |
| C#CCOc1ccc(OC)cc1C(c1c(C)[nH][nH]c1=O)c1c(C)[nH][nH]c1=O | 13.5 |
| COc1ccc(CNC(=O)C(C)OC(=O)CO/N=C(\C)c2ccc3c(c2)OCO3)cc1 (stereo not drawn) | 11 |
| CC1CCC(C(C)C)C(OC(=O)Cn2c(-c3ccc(Br)cc3)[n+](C)c3ccccc32)C1.[Cl-] (stereo not drawn) | -60.7 |
| COc1ccc(COC(=O)Nc2cn(C)nc2C(F)(F)F)cc1 | 3.22 |
| O=C(/C=C/c1ccccc1)NC(=S)NNC(=O)c1ccco1 | 18.1 |
| CCN(C(=O)COC(=O)c1cc2ccccc2cc1O)C1CCS(=O)(=O)C1 (stereo not drawn) | 4.98 |
| CC(C)[C@H](NC(=O)C1CCN(S(=O)(=O)c2ccc(F)cc2)CC1)C(=O)NCc1ccncc1 | 17 |
| COc1ccc(NC(=O)CC2C(=O)N(Cc3ccccc3)C(=S)N2CCN2CCOCC2)cc1 (stereo not drawn) | 10 |
| CC(C(=O)NC1=NCCS1)N1C(=O)C2CC=CCC2C1=O (stereo not drawn) | 11.8 |
| CC(=O)N1C(Nc2ccc(Cl)cc2)CCN1c1ccccc1 (stereo not drawn) | 10.6 |
| O=C(N/N=C/c1ccc(-c2ccccc2[N+](=O)[O-])o1)[C@H]1C[C@@H]1c1ccccc1 | 19 |
| Cc1cccc(NC(=O)CSc2nc(=O)n3ccccc3n2)c1C | 11.5 |
| Cc1c(NC(=O)c2ccc3c(c2)OCO3)cccc1-c1nc2ncccc2o1 | 14.5 |
| Cc1ccc(NCC(=O)N/N=C\c2ccc([N+](=O)[O-])o2)cc1 | -1.98 |
| Cc1ccc(-c2ccc(SCC(=O)N3CCCc4ccccc43)nn2)cc1 | -0.2 |
